The campaign covered roughly 310,000 compounds. About 14,000 (4.5%) showed an effect of 50% or more. The effect is printed as a negative number. Some of the results follow.
Each molecule was assayed against human ether-à-go-go-related gene (hERG) potassium channel (human, UniProt Q12809) (assay: primary screen, population patch clamp on CHO cells stably expressing hERG).
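Note: peak tail current of the secondary pulse compared with the same well before compound.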

Sequence of human ether-à-go-go-related gene (hERG) potassium channel (Q12809 whole entry, looked up): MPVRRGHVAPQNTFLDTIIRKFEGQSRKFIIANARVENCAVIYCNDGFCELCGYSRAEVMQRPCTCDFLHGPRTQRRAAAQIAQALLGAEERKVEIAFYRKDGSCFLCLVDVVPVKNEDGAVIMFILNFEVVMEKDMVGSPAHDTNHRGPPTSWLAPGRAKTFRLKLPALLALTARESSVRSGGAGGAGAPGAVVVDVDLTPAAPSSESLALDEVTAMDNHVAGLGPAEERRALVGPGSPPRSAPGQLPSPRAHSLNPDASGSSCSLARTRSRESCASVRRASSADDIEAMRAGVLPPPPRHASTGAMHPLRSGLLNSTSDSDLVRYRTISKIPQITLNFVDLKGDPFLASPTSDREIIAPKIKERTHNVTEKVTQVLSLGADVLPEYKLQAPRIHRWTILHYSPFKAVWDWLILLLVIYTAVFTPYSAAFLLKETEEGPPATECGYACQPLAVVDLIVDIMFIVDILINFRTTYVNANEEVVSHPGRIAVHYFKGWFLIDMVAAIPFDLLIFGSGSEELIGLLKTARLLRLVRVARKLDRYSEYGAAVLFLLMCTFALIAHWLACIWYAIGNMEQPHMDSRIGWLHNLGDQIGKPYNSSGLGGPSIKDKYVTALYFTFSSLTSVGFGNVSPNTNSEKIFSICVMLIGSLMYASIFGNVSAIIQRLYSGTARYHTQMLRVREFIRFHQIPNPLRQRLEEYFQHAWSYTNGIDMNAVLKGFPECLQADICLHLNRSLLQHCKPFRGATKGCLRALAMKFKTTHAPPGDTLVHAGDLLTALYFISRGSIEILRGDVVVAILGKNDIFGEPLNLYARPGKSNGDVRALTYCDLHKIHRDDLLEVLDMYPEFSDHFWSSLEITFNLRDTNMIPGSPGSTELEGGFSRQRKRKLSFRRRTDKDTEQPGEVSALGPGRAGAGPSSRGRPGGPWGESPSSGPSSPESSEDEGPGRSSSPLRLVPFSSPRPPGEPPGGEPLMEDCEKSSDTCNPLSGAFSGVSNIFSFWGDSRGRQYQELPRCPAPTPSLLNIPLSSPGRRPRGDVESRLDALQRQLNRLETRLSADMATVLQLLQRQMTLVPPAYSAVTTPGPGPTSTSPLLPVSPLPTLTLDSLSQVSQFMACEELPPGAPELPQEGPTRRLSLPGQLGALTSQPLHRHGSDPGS

SMILES	hERG current change (%, negative = inhibition) at 10uM [%]
O=C(CN1C(=O)NC2(CCCCC2)C1=O)N1CCN(c2ncccn2)CC1	0.553
CCOC(=O)c1c(-c2ccccc2)oc2ccc(OCC(O)CN(C)C)cc12 (centres unmarked)	-33.8
O=C(Nc1ccccc1)OCc1cncs1	25.5
COc1ccc(O)c(CN2CCCC(N3CCN(c4ccc(F)cc4)CC3)C2)c1 (centres unmarked)	-59.7
Cc1ccc(-c2ccc(SCC(=O)NCC3CCCO3)nn2)cc1 (centres unmarked)	-5.69
COc1ccc2c(C)cc(SCC(=O)c3ccc4c(c3)OCO4)nc2c1	1.07
O=C(CN1C(=O)NC2(CCCC2)C1=O)N1CCc2ccccc2C1	20.5
O=C(NC(=S)Nc1ccc(S(=O)(=O)Nc2nccs2)cc1)c1ccc(F)c(F)c1	2.19
COC(=O)c1ccc(NC(=O)c2ccc3nsnc3c2)cc1	4.15
CCOC(=O)C1C(=O)OC2(CCCC2)C1C(=O)OCC (centres unmarked)	-7.15
O=C(C1CCCN(S(=O)(=O)c2ccccc2[N+](=O)[O-])C1)N1CCCC1 (centres unmarked)	-8.37
Cc1ccc(C2CC2c2n[nH]c(=S)n2-c2cccc(C)c2)cc1 (centres unmarked)	16.6
CCOC(=O)c1ccc(-n2c(CCC(=O)O)ccc2-c2ccccc2)cc1	1.88
Cc1cccn2cc(-c3ccc(S(=O)(=O)N4CCCCC4)cc3)nc12	-1.13
Cc1ccc(S(=O)(=O)N(C(=O)c2ccncc2)c2ccc(OC(=O)c3ccncc3)cc2)c(C)c1	-0.914
CC1(C)Cc2c(sc3nc(=S)[nH]c(N)c23)CO1	13.6
CCN(CC)CCN1C(=O)c2ccccc2NC1c1ccccc1F (centres unmarked)	-46.3
CCOC(=O)Cc1csc(NC(=O)Cc2ccccc2[N+](=O)[O-])n1	7.19
C=CCOC(=O)CN1C(=O)c2ccccc2C1=O	2.24
CCOc1ncccc1C(=O)N1CCN(S(=O)(=O)c2ccc3ccccc3c2)CC1	-19.1
CCOc1cc(/C=N/NC(=O)CSc2nncn2C)ccc1OCC(N)=O	12
Cc1ccc(OCC(=O)NNC(=O)c2ccc(-n3cncn3)c([N+](=O)[O-])c2)cc1	-2.51
O=C(O)CCC(=O)Nc1ccccc1N1CCOCC1	0.751

SMILES	hERG current change (%, negative = inhibition) at 10uM [%]
CC(=O)N(C)c1cccc(-c2ccc3nnc(C)n3n2)c1	12.7
O=C(Nc1ccc(Cl)cn1)Nc1ccccc1F	6.46
Nc1c(-c2ccccc2)nnn1Cc1ccccc1	5.68
CCCCn1c(N)c(N(CCOC)C(=O)c2cc(S(=O)(=O)N3CCOCC3)ccc2F)c(=O)[nH]c1=O	16.1
COc1cccc(-n2c(C)nn(C)c2=O)c1	5.32
CCCCCNC(=O)c1ccc2c(c1)ncn2-c1ccc(OC)cc1	-64
COc1ccc(/C=C(\C#N)C(=O)NCc2cccnc2)cc1OC	-0.0191
Cc1cc(C)n(-c2nnc(SCC(=O)NC3CCCC3)c3ccccc23)n1	-21.9
Cc1ccc(N(CC(=O)NCc2ccc(Cl)cc2)S(C)(=O)=O)cc1	10.4
O=C(c1ccc(N2CCCC2=O)cc1)N1CCN(c2ccccc2F)CC1	10.6
CCc1nnc(NC(=O)C2CSC3(C)CCC(=O)N23)s1 (centres unmarked)	2.35
NC(=O)[C@H]1CC2(CC(c3cccc(NC(=O)[C@H]4CCC(=O)N4)c3)=NO2)CN1C(=O)c1ccccc1 (some centres unmarked)	7.14
COc1ccc(/C=N/c2c(-c3ccco3)nc3ccccn23)cc1OC	-25.3
O=C(O)/C=C/C(=O)NNc1ccc([N+](=O)[O-])cc1	-0.0879
COc1ccc(NC(=O)CN(C)C(=O)CSc2nc3ccccc3s2)cc1	-4
O=C(NCc1ccccc1Cl)C1CCC(CNc2c(N3CCOCC3)c(=O)c2=O)CC1 (centres unmarked)	34.2
CCOC(=O)Cc1cc(-c2ccccc2)nc2ccc3ccccc3c12	23
CN(C(=O)C(C)(C)C)c1ccc(OCC(=O)N2CCc3ccccc3C2)cc1	-4.12
CC(=O)Nc1cccc(C(=O)Oc2cccc(C)c2)c1O	-6.85
CC1(C)NC(=O)N(CC(O)CN2CCCCC2)C1=O (centres unmarked)	24
C=CCn1c(SCC(=O)N(CC)C2CCS(=O)(=O)C2)nnc1-c1ccccc1 (centres unmarked)	-2.7
CN(C/C=C/c1ccccc1[N+](=O)[O-])Cc1ccccc1	-46
COC(=O)c1ccc(COc2cccc3c2OC(C)(C)C3)cc1	28.7

SMILES	hERG current change (%, negative = inhibition) at 10uM [%]
O=C(NCCCn1ccnc1)c1noc2c1CCCC2	-41.8
CCNc1nc(NCC)n2c(SC(C(=O)Nc3cc(C)ccc3OC)c3ccccc3)nnc2n1 (centres unmarked)	-41.4
O=C(O)COc1ccccc1/C=N/NC(=O)COc1ccc(-c2ccccc2)cc1	-1.47
Cc1cc(=O)[nH]c(N/N=C/c2cc(C)n(CC(F)(F)F)c2C)n1	3.96
COc1cc2c(cc1OC)C(COc1ccc([N+](=O)[O-])cc1)N(C(C)=O)CC2 (centres unmarked)	-77.4
CCN(CC)c1ccc(NC(=O)CNCc2ccccc2Cl)c(C)c1.O=C(O)C(=O)O	-12.9
NC(=O)C1CCN(c2ccc(S(=O)(=O)N3CCC(Cc4ccccc4)CC3)cn2)CC1	17
Cc1c(CC(=O)NCCC(=O)O)c(=O)oc2cc3oc4c(c3cc12)CCCC4	22.8
COc1cccc(NC(=O)CN(C)C(=O)c2ccc(S(=O)(=O)Nc3ccccc3C)cc2)c1	-16.2
Cc1cccc(N2C(=O)NC(=O)/C(=C\c3cccn3-c3ccc(Cl)cc3)C2=O)c1	6.15
CCOC(=O)/C(C#N)=C\c1cc(OC)c(OC)cc1[N+](=O)[O-]	16.6
CCN1CCN(C(=O)c2cnn3c(C(F)F)cc(-c4ccc(C)cc4)nc23)CC1	-30.5
CCSc1nc2sc3c(c2c(=O)n1CC)CCC3	13
O=C(O)c1ccc2c(c1)C(=O)N(Cc1ccccc1)C2=O	-11.5
CCOc1ccccc1N/C(=C(/C(Cl)=C(Cl)Cl)[N+](=O)[O-])n1cncn1	-11.7
CS(=O)(=O)c1ccc(N2CCN(c3ccccn3)CC2)c([N+](=O)[O-])c1	-55
O=C(NCCN1CCOCC1)C1CCN(S(=O)(=O)N2CCCC2)CC1	16.2
CCC(C)NC(=O)c1csc2c1CCCCC2 (centres unmarked)	18.1
O=C(Cc1cccc2ccccc12)NCCc1ccccc1	5.98
Clc1ccccc1OCCCCn1ccnc1	-2.93
O=C(COc1ccc(Cl)cc1Cl)NNC(=S)NC(=O)c1ccco1	13.1
COc1ccc2nc(-c3ccco3)c(-c3ccco3)nc2c1	1.82
CC1CCC2(CC1)SCC(=O)N2c1ccc(F)cc1 (centres unmarked)	-0.055

SMILES	hERG current change (%, negative = inhibition) at 10uM [%]
O=C(NN=C1CCCC1)C1COc2ccccc2O1 (centres unmarked)	10.6
CCSC1=NCCN1C(=O)c1c(-c2ccccc2Cl)noc1C	-20.6
O=C(c1ccc(Oc2cc(Cl)cc(Cl)c2)o1)N1CCCCC1	-7.03
Cc1nn(-c2ccccc2)c(C)c1C(=O)OCC(N)=O	14.7
Cc1ccc(C(=O)ON=C2CCN(c3ccc([N+](=O)[O-])cc3)CC2)cc1	-60.9
CCCCN(CC)CCNC(=O)c1cn(C)c(=O)c2c1c1ccccc1n2C	-24.6
COc1ccc(NC(=O)c2c(NC(=O)CNCc3ccco3)sc3c2CCC3)c(OC)c1	2
CCC(C)NC(=O)c1ccccc1NC(=O)/C(=C/c1ccc(OC)cc1)c1ccccc1 (centres unmarked)	3.99
CS(=O)c1ccccc1COC(=O)Nc1cccc(Cl)c1 (centres unmarked)	-27.2
CCN(Cc1ccccc1)C(=O)CCc1nnc(CCCc2ccccc2)o1	21.1
CCc1ccc(NC(=O)[C@H](Cc2c[nH]c3ccccc23)NC(=O)[C@@H]2Cc3ccccc3CN2)cc1	-11.3
CC(C)(C)c1ccc(S(=O)(=O)Nc2ccc(Cc3ccncc3)cc2)cc1	-8.11
CCCOc1ccc(Cn2c(O)cc(=O)[nH]c2=O)cc1	14.1
COc1cc(NS(=O)(=O)c2ccc(NC(=S)NC(=O)C(C)(C)C)cc2)nc(OC)n1	-4.46
COC(=O)c1cn(-c2ccccc2)nc1-c1ccc(OC)cc1	15.1
Cc1cccc(C)c1NC(=O)CNC(=O)c1ccncc1	8.24
CN(C)CCN(C(=O)c1ccccc1Cl)c1nc2c(Cl)cccc2s1.Cl	-34.1
CCOC(=O)N1CCC(Nc2ccc3nnc(-c4ccccc4)n3n2)CC1	-82
CCOc1ccc(N2C(=O)NC(Cc3c[nH]c4ccccc34)C2=O)cc1 (centres unmarked)	-4.47
Cc1ccnc(NC(=O)c2ccc(N3C(=O)CCC3=O)cc2)c1	5.53
